# “And” between values parts separate entries of the source, which are not always exact repeats. Equal entries are not always repeated. Screen size: about 350,000 compounds; about 31,000 (8.9%) were called active. Inconclusive means that the source gave no clear call. Such entries were picked first, then a sample of the others. The call rests on the fitted dose curve; in most records, active means well fitted inhibition curve with a large enough effect; inconclusive means small, poorly fitted or top-dose-only effect; inactive means no such curve, though single readings can be large or run the other way. A potency beside an inconclusive call is a rough fit, not a confirmed value.
# Target: Histone-lysine N-methyltransferase EHMT2 (Homo sapiens) (UniProt Q96KQ7)
# Experiment: qHTS Assay for Inhibitors of Histone Lysine Methyltransferase G9a; further: nearly all actives have a fitted effect of over 75% in size
# Details: G9a H3K9 monomethylation, AlphaScreen, 2 h; activity, negative = inhibition: at 59 µM (top of the series) unless noted
# How it was run: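 Readings reflect AlphaScreen signal from monomethyl-H3K9 antibody detection. HMT at 20 nM; substrate b-H3K9 500 nM; cofactor SAM 20 uM; 2 h RT reaction; compounds tested as titrations in qHTS with 15 min preincubation.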
# On the % scale 0 is the no-effect control and ±100 the full control effect; potency means the concentration at half of the fitted maximal effect; tags describe the fitted curve by direction and shape.
# Chain of UniProt Q96KQ7 (Q96KQ7 whole entry, looked up): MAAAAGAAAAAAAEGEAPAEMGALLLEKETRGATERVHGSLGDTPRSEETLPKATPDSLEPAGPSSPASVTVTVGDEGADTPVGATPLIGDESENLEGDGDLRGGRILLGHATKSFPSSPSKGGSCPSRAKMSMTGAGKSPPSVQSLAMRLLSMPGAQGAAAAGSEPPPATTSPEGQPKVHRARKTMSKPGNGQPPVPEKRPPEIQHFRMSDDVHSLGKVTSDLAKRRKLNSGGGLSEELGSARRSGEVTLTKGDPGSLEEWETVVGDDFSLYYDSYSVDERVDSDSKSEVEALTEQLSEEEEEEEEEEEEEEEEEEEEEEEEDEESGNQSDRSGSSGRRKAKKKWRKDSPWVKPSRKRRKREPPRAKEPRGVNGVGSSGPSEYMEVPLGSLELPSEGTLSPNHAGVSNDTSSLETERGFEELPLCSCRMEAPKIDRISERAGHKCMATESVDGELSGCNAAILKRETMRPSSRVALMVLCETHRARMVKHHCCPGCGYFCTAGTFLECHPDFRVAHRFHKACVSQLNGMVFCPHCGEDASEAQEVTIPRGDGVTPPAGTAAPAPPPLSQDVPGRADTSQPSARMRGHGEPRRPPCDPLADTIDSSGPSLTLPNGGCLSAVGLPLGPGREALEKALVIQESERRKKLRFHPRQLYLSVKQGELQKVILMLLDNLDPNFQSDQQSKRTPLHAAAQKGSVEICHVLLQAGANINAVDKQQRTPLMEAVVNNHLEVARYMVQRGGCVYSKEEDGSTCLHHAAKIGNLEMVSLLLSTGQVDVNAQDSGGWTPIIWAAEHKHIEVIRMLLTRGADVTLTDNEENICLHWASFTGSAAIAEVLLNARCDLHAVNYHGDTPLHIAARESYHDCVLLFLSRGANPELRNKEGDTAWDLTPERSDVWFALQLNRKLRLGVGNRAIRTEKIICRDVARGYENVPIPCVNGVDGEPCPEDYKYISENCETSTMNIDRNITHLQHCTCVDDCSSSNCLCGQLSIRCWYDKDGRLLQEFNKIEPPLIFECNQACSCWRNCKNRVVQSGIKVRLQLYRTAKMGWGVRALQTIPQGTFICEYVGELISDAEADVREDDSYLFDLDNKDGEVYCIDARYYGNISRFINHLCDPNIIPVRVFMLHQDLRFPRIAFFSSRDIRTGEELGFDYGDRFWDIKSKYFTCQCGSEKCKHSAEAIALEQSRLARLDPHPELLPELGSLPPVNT
SMILES,"activity, negative = inhibition",Potency
S=C(NCCN1CCCCC1)Nc1ccc(Br)cc1,inconclusive: -58.7% [inhibitor],–
Cc1cccc(C(=O)N2CCN=C2SCc2ccc([N+](=O)[O-])cc2)c1,–,"inconclusive: 35.5 µM [inhibitor, full curve]"
COc1cc(Br)c(CNc2cc(C)ccc2C)cc1OC,–,active: 28.2 µM
CCOC(=O)c1ccc(CN(Cc2ccccc2)S(=O)(=O)c2ccc(C)cc2)cc1,–,inactive
COc1ccc(CCC(=O)NC2CC(=O)N(c3ccc(C)cc3)C2)cc1 (stereo not given),–,inactive
COc1ccc2cc(/C(C)=N/NC(=S)Nc3cc(S(=O)(=O)N4CCOCC4)ccc3N3CCOCC3)ccc2c1,–,inactive
COc1ccc(N(CC(=O)NC2CCCC2)C(=O)CCC(=O)Nc2cc(C)on2)c(OC)c1,–,"inconclusive: 1.41 µM [inhibitor, partial curve, poor fit]"
CCOC(=O)c1c(NC(=O)CS(=O)(=O)c2cn(CC)c3ccccc23)sc2c1CCCC2,–,"inconclusive: 89.1 µM [inhibitor, single point]"
OC(c1ccc2c(c1)OCO2)c1nccc2ccccc12 (stereo not given),–,active: 44.7 µM
O=[N+]([O-])c1ccc2nc(-c3ccc(Cl)cc3)[nH]c2c1,–,active: 39.8 µM
Cc1ccc(C)c(NC(=O)C(c2ccccc2)N2CCN(CC(=O)NC3CC3)CC2)c1 (stereo not given),–,"inconclusive: 89.1 µM [inhibitor, single point]"
Cc1ccccc1CNC(=O)C(C)n1nc(C)n2c(cc3occc32)c1=O (stereo not given),–,inactive
CN1C(=O)/C(=N\OC(=O)c2ccccc2Cl)c2ccccc21,–,"inconclusive: 31.6 µM [inhibitor, full curve, poor fit]"
N=C(CC1CC(=O)NC(=O)C1)C1=C(O)CCCC1=O,–,"inconclusive: 50.1 µM [inhibitor, partial curve]"
Cc1ccc(-c2nc3c(c(SCC(=O)N4CCCCC4)n2)Cc2cc(C)ccc2O3)cc1,–,"inconclusive: 39.8 µM [inhibitor, single point]"
COc1cc(CNc2ccc(N3CCN(C(C)=O)CC3)cc2)ccc1OCc1ccccc1,–,active: 28.2 µM
Cc1ccc(OCC(=O)Nc2ccc(C)c(F)c2)c([N+](=O)[O-])n1,–,"inconclusive: 89.1 µM [inhibitor, partial curve, poor fit]"
Cn1ccnc1Sc1nc(Nc2cccc(Cl)c2)nc(N2CCOCC2)n1,–,"inconclusive: 35.5 µM [inhibitor, full curve, poor fit]"
Cc1ccc(Nc2c([N+](=O)[O-])cc(C(=O)N3CC(=O)Nc4ccccc43)cc2[N+](=O)[O-])c(C)c1,inconclusive: -66.8% [inhibitor] [at 0.501 µM],–
CN1CCN(c2nc(NCc3ccco3)nc(N)c2[N+](=O)[O-])CC1,inconclusive: -69.9% [inhibitor],–
CN1C(=O)N(CC(=O)Nc2cccc(S(=O)(=O)N(C)c3ccccc3)c2)C(=O)C12CCCCC2,–,active: 56.2 µM
O=Cc1c(-[n+]2ccccc2)nc([O-])n1-c1ccccc1,–,"inconclusive: 39.8 µM [inhibitor, single point]"

SMILES,"activity, negative = inhibition",Potency
O=C(CC1Sc2ncnn2C1=O)Nc1ccc(Br)cc1 (stereo not given),–,active: 2 µM
COc1ccc(NC(=S)N2CCN(Cc3ccc(C)cc3)CC2)cc1,–,"inconclusive: 79.4 µM [inhibitor, partial curve, poor fit]"
Cc1oc(-c2ccc(Cl)cc2)nc1CN1CCC(C(=O)NCc2cccs2)CC1,–,"inconclusive: 89.1 µM [inhibitor, single point]"
COc1ccc(N)cc1C#N,–,"inconclusive: 89.1 µM [inhibitor, single point]"
CCN1N=C(C)C=C(c2ccccc2)n2c1nc1ccccc12,–,active: 79.4 µM
COc1ccccc1CNC(=O)C(Cc1ccccc1)NS(=O)(=O)c1ccc2c(c1)oc(=O)n2C (stereo not given),–,inactive
Cc1ccc(N/N=C/c2c(O)cc(C)oc2=O)cc1,–,"inconclusive: 8.91 µM [inhibitor, partial curve, poor fit]"
CC(C)NC(=O)Nc1ccc2c(c1)N(C)C(=O)c1ccccc1S2,–,"inconclusive: 31.6 µM [inhibitor, partial curve, poor fit]"
COC(=O)CN1C(=O)C2(C(C#N)=C(N)Oc3c2c(C)nn3-c2ccccc2)c2ccccc21 (stereo not given),–,"inconclusive: 22.4 µM [inhibitor, single point]"
COc1ccc(-c2nc3scc(CCNS(=O)(=O)c4ccc(F)cc4F)n3n2)cc1OC,–,inactive
CC(C)CN1CCN(Cc2cc3ccccc3[nH]2)CC1CCO (stereo not given),–,"inconclusive: 89.1 µM [inhibitor, single point]"
O=C(NCC(=O)N1CCC2(CC1)NCCc1[nH]cnc12)c1ccc2ccccc2c1,–,"inconclusive: 50.1 µM [inhibitor, single point]"
COc1ccc(C2=CC3=C(Br)C(=O)C(C)(OC(=O)c4ccco4)C(=O)C3=CO2)cc1 (stereo not given),–,"inconclusive: 8.91 µM [inhibitor, single point]"
CC(=O)[C@@H]1[C@@H]2C(=O)N(c3ccc(F)c(Cl)c3)C(=O)[C@@H]2C2c3ccccc3C=CN21 (stereo not given in full),–,active: 6.31 µM
CN(C)C(=O)CSc1nnc(Cc2ccccc2)n1Cc1ccco1,–,"inconclusive: 39.8 µM [inhibitor, single point]"
COc1ccccc1CNC(=O)COC(=O)c1ccc(N2CCCC2=O)cc1,–,"inconclusive: 6.31 µM [inhibitor, single point]"
Cn1cnnc1SC/C(O)=C(\C#N)c1nc2ccccc2[nH]1,–,"inconclusive: 6.31 µM [inhibitor, single point]"
CSc1ccccc1C(=O)Nc1cccc([N+](=O)[O-])c1,inconclusive: -75.4% [inhibitor],–
O=C1C(=O)c2ccccc2C(O)=C1C1CCC(c2ccc(Cl)cc2)CC1 (stereo not given),–,"inconclusive: 8.91 µM [inhibitor, partial curve] and inconclusive: 1.41 µM [inhibitor, partial curve, poor fit]"
Cc1ccc(-n2c(Cc3cccs3)nnc2SCC(N)=O)cc1,inactive: 16.7% [at 12.7 µM],–
Cc1c(C(=O)N2CCN(c3ccccc3)CC2)sc2ncnc(N3CCC(C)CC3)c12,inconclusive: -75.7% [inhibitor],–
Cc1ccc(S(=O)(=O)N(C)C)cc1NC(=O)CSc1nnc(C2CC2)n1C1CC1,inactive: 11.7% [at 2.33 µM],–

SMILES,"activity, negative = inhibition",Potency
CCOC(=O)CNc1c(-c2ccc(O)cc2)nc2ccc(Cl)cn12,inconclusive: -61.1% [inhibitor],–
CC1(C)Cc2cccc(OCC(=O)OCC(=O)Nc3ccccc3)c2O1,inactive: -19.2% [at 2.33 µM],–
COc1ccc(N(Cc2cc(=O)[nH]c3ccccc23)C(C)=O)cc1,–,"inconclusive: 44.7 µM [inhibitor, partial curve, poor fit]"
Cc1ccc(NC(=O)CCOc2ccccc2)c(C)c1,–,inactive
Cn1cc(C2CC(c3ccccc3)=NN2C(=O)c2ccccc2)c2ccccc21 (stereo not given),–,"inconclusive: 17.8 µM [inhibitor, single point]"
CCOC(=O)Cc1[nH]nc2c1C(c1cccc(OC)c1OC)C(C#N)=C(N)O2 (stereo not given),–,"inconclusive: 89.1 µM [inhibitor, single point]"
Cc1c(C(=O)N2CCCC2)oc2c1-c1nn(CC(=O)NCc3cccc(Br)c3)cc1CC2,–,"inconclusive: 28.2 µM [inhibitor, partial curve, poor fit]"
COc1ccccc1-n1c(=O)c(C#N)c(-c2ccc([N+](=O)[O-])cc2)c2cc(C(=O)c3cc(F)ccc3O)cnc21,inconclusive: -65.4% [inhibitor],–
Cc1ccc(C)c(N2CC(=O)N(c3cc(C)ccc3C)CC2=O)c1,inactive: 32.1% [at 12.7 µM],–
COC(=O)C/C=C/[C@@H](C)[C@@H](/C=N/OCC[C@@H]1C=C[C@H](OC(C)=O)[C@@H](COC(C)=O)O1)NS(=O)(=O)c1ccc(C)cc1,–,"inconclusive: 89.1 µM [inhibitor, single point]"
CCCC(=O)C1CCN(Cc2ccccc2)CC1,–,inactive
Cc1ccc(SCc2cn3c(C)csc3n2)cc1,inconclusive: -114% [inhibitor],–
CCCOC(=O)c1ccc(NC(=O)c2cc(OC)c(OC)c(OC)c2Br)cc1,–,"inconclusive: 50.1 µM [inhibitor, partial curve, poor fit]"
Cc1cccc(C)c1OCC(=O)Nc1ccncc1,–,"inconclusive: 89.1 µM [inhibitor, single point]"
Cc1ccc(N(C)S(=O)(=O)c2ccc3[nH]cc(C(=O)NCCCN4CCOCC4)c(=O)c3c2)cc1C,–,inactive
O=C(Cn1nnc(-c2ccc(CN3CCOCC3)cc2)n1)N(c1ccccc1)c1ccccc1,–,"inconclusive: 44.7 µM [inhibitor, partial curve, poor fit]"
COc1ccc(-c2c(C)[nH]n3c(=O)c(Cc4ccccc4)c(C)nc23)cc1,–,"inconclusive: 7.94 µM [inhibitor, full curve, poor fit]"
Cc1ccc(S(=O)(=O)N2CCN(C(=O)COC(=O)/C=C/c3ccccc3[N+](=O)[O-])CC2)c(C)c1,–,"inconclusive: 50.1 µM [inhibitor, partial curve, poor fit]"
CCCCN(Cc1ccccc1)C(=O)C1CCN(Cc2sccc2C)CC1,–,active: 14.1 µM
Cc1ccnc(NC(=O)COc2ccc3oc4c(c3c2)CCCC4)c1,–,"inconclusive: 39.8 µM [inhibitor, single point]"
CCCc1nnc(SCC(=O)Nc2nc(C)cs2)n1CCOC,–,"inconclusive: 63.1 µM [inhibitor, partial curve, poor fit]"

# From PubChem BioAssay AID504332 (National Center for Advancing Translational Sciences (NCATS), 2011)
